In PubChem BioAssay AID493208 (National Center for Advancing Translational Sciences (NCATS), 2011):
The whole screen tested about 44,000 compounds, of which about 340 (0.77%) were called active. Another 5% or so got no clear call; they are omitted. The call rests on the fitted dose curve; in most records, active means well fitted inhibition curve with a large enough effect; inconclusive means small, poorly fitted or top-dose-only effect; inactive means flat fitted curve, though single readings scatter. The list shows a part of the results.

Test: Acumen qHTS Assay for Inhibitors of the mTORC1 Signaling Pathway in MEF (Tsc2-/-, p53-/-) Cells: Sytravon;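 further: plate controls were DMSO for no effect and rapamycin for full effect; nearly all actives have a fitted effect of over 50% in size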
Details: phospho-rpS6 immunofluorescence/PI, 24 h; series mostly up to 38.3 µM; activity change, negative = inhibition: at the top concentration
Outline: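 Immunofluorescence of rpS6 phosphorylation in Tsc2-/-, p53-/- MEFs after 24 h compound exposure, normalized to propidium iodide signal. Activity is expressed as % positive cells, thresholded with 7.5 nM rapamycin.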

Activity change, negative = inhibition, inactive:
CCCCOC(=O)c1ccc(NC(=O)c2csnn2)cc1 -0.594%
CC1=C(C(=O)Nc2ccccc2)C(c2ccc[nH]2)n2ncnc2N1 (configuration not stated) 6.75%
COC(=O)c1ccc(NC(=O)C(=O)NCC(c2cccnc2)N2CCc3ccccc32)cc1 (configuration not stated) 7.01%
Cc1c(NC(=O)c2sc3ccccc3c2Cl)cccc1-c1nc2ccccc2o1 -11.6%
Cc1c(Cl)cccc1NC(=O)Cn1nnc(-c2nc(-c3ccccc3)no2)c1N -9.88%
CCCOc1ccc(C(=O)Nc2ccc3oc(-c4ccc(N(C)C)cc4)nc3c2)cc1 7.67%
Cc1cccc(C)c1NC(=O)CSc1nc2ccccc2c2nc(CCc3c(C)n[nH]c3C)nn12 -5.87%
CCn1cc(C(=O)NCCc2ccc(C)cc2)c(=O)c2cc(S(=O)(=O)N3CCC(C)CC3)ccc21 -0.695%
CCCOc1ccc(OC(=O)c2cn(-c3ccc(OC)cc3)c(=O)c3ccccc23)cc1 -8.18%
CCOc1ccccc1NC(=O)C1=C(C)Nc2ncnn2C1c1cccs1 (configuration not stated) -22.3%
Cc1cccc(N2CCN(C(=O)c3ccc4c(Cl)c5c(nc4c3)CCCC5)CC2)c1C 1.39%
COc1cccc(-c2nn3c(=O)cc(CN4CCN(C(=O)/C=C/c5ccccc5)CC4)nc3s2)c1 7.75%
COc1cc(NC(=O)c2nc3ccccc3n(C)c2=O)cc(OC)c1OC -3.63%
Cc1ccc(CCNC(=O)CCS(=O)(=O)c2cc3c(cc2Cl)NC(=O)CO3)cc1 7.25%
CC(C)NC(=O)CN1C(=O)c2cccnc2Sc2ccccc21 1.54%
CC(=O)c1cccc(NC(=O)c2cc(C)nc3c2c(C)nn3-c2cccc(Cl)c2C)c1 -0.568%
O=C(OCc1cc(=O)n2nc(C3CC3)sc2n1)c1ccccc1Cl -9.67%
Cc1ccc(-c2nc(-c3cc4cccc(OCc5ccccc5F)c4oc3=O)no2)cc1 0.486%
Cc1ccc(NC(=O)Cn2c(=O)n(Cc3ccc(C(=O)NCc4ccc5c(c4)OCO5)cc3)c(=O)c3ccccc32)cc1 -9.33%
COc1ccc(NC(=O)c2csnn2)cc1 -18.5%
CCOc1ccc(CNC(=O)CCS(=O)(=O)c2ccc3c(c2)oc(=O)n3C)cc1 5.53%
COc1cc(NC(=O)CCS(=O)(=O)c2ccc3c(c2)n(C)c(=O)c(=O)n3C)cc(OC)c1 2.02%
Cc1cccc(NC(=O)N2CCN3CCCCC3C2)c1C (configuration not stated) -13.6%
COc1cccc(NC(=O)Cn2c(-c3nonc3N)nc3ccccc32)c1 4.37%
COc1ccccc1N1CCN(c2csc3ccccc3c2=O)CC1 -7.26%
COc1ccccc1CNC(=O)CCCCn1c(=O)c2ccccc2n(CC(=O)Nc2cccc(Cl)c2)c1=O -11.3%
COC(=O)c1cc2oc3ccccc3c2n1Cc1ccccc1Cl -2.37%
Cc1ccc(-n2ncc3c(N4CCN(c5ccc(F)cc5)CC4)ncnc32)cc1 9.44%
COc1ccc2oc(-c3ccc(NC(=O)c4ccc(Cl)cc4Cl)cc3)nc2c1 -9.25%
COc1ccc(CNC(=O)C(=O)Nc2cccc(C)c2C)cc1 -17.8%
O=c1c(-c2cc(-c3ccccc3)nc3c2COc2ccccc2-3)coc2ccc(Cl)cc12 -4.69%
CCc1ccc(NC(=O)C2CCCN(c3nnc(C)c4c(C)n(-c5ccccc5)nc34)C2)cc1 (configuration not stated) -5.6%
O=C(Nc1cc(Cl)ccc1Cl)c1cc(S(=O)(=O)N2CCc3ccccc3C2)ccc1F 8.41%
COc1ccc(OC)c(C(=O)CN2C(=O)N(c3ccc(C)cc3)S(=O)(=O)c3ccccc32)c1 -0.375%
Cc1ccc(CNS(=O)(=O)c2ccc3c(c2)CC(C)N3C(=O)C2CCC2)cc1 (configuration not stated) 0%
O=C(Cn1c(-c2cccs2)cc2ccccc21)N1CCN(c2ccc(F)cc2)CC1 0.184%
COC(=O)c1c(-c2cccs2)csc1NC(=O)c1ccc(C)cc1 0.0397%
COc1ccccc1NC(=O)Cn1c(=O)n(CC2CCC(C(=O)NCCc3ccccc3)CC2)c(=O)c2ccccc21 (configuration not stated) -16.8%
CCOC(=O)CSc1nc2sc3c(c2c(=O)n1-c1ccc(OC)cc1)CC(C(C)C)OC3 (configuration not stated) -4.11%
Cc1cc(NC(=O)c2cc(-c3ccc(Cl)c(Cl)c3)on2)n(-c2ccccc2)n1 6.84%
CCOc1ccc(CNC(=O)C2CCN(C(=O)N3CC(CC)Oc4ccc(C)cc43)CC2)cc1OC (configuration not stated) -19.7%
Cc1cc(Br)ccc1NC(=O)c1c(C)oc2ncnc(N3CCCCC3)c12 -7.98%
Cc1ccccc1N1CC(c2nc3ccccc3n2Cc2ccc(Br)cc2)CC1=O (configuration not stated) 4.53%
COCCNC(=O)CN1C(=O)COc2ccc(S(=O)(=O)N3CCCC3)cc21 -3.31%
CCN(CC)CCOC(=O)c1ccc(NC(=O)c2cc3cc(OC)ccc3oc2=O)cc1 0.943%
Cc1nnc(SCC(=O)Nc2ccc(N(C)C)cc2)[nH]c1=O -1.46%
CCc1ccc(NC(=O)Cn2c(=O)n(CCCC(=O)NCCc3ccc(OC)c(OC)c3)c(=O)c3ccccc32)cc1 0.21%
